In the assay the target is T1, flagellin type A of P. aeruginosa laboratory strain PAK (Pseudomonas aeruginosa, UniProt P21184 2-394).
T1 construct: whole, on cells; Tested on whole immobilized or formaldehyde-fixed bacteria (ELISA) and in blotted bacterial lysate (western blot)
T1 sequence: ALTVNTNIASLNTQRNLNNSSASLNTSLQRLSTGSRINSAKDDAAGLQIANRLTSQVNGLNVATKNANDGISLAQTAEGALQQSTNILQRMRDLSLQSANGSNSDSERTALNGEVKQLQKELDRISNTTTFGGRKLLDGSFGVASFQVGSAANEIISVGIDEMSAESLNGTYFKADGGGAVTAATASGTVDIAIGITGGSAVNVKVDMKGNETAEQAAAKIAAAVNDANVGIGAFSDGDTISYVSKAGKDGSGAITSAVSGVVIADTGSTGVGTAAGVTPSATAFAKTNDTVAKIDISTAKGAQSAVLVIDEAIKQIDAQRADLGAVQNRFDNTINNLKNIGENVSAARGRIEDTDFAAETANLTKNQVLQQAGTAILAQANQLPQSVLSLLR
The assay can be described thus: ELISA on formaldehyde-fixed whole PAK bacteria.

B1: monoclonal dual-specific anti-flagella type A and B antibody LST-009 (bispecific antibody)
chain 1: DVQLQESGPGLVKPSQSLSLPCSVTGYSITSGYYWNWIRQFPGNKLEWMGYIRYDGNNNYNPSLKNRISITHDTSKNQFFLKLNYVTTEDTATYYCARGLQFYFDSWGQGTTLTVSSGGGGSGGGGSGGGGSDIVMSQSPSSLAVSGGEKVTMSCKSSQSLLNGSYQKHTLAWYQQKPGQSPKLLIYWASTRESGVPDRFTGSGSGTDFTLTISSVKAEDLAVYYCQQYYSYPWTFGGGTKLEIKRPGSAGGSGGDS[human IgG1 Fc with T366Y (EU numbers) left out]
chain 2: DIVMTQSHIFMSTSVGDRVSITCKASQDVGSAVAWYQQKPGQSPKVLIYWTSTRHTGVPDRFAGSGSGTEFTLTISNVQSEDLADYFCQQYSSYPLTFGAGTKLELKRGGGSAAAEVMLVESGGGLVKPGGSLKLSCAASGFTFSTFTMSWVRQTPEKRLECVATINGGGGNTYYPDSVKGRFTISRDNAKNNLYLQMSSLRSEDTAFYFCSRLYGIYAMDYWGQGTSVTVSSPGSAGGSGGDS[human IgG1 Fc with Y407T (EU numbers) left out]
notes: Knobs-into-holes scFv-Fc heterodimer made in CHO cells; also called dual specific LST-009; heterodimeric LST-009 mAb
With B1, the EC50 is approximately 4 µg/mL.

These data come from US20130096282A1 (LOSTAM BIOPHARMACEUTICALS, published 2013).
